According to patent publication US20190002533A1:

Target: BKV serotype III VP1 pentamer (BK virus (BKV) serotype III), P14996
Experiment: SET (solution equilibrium titration)
Details: remark: other sources report otherwise

Binder	Kd
NEG447A (antibody, human IgG1, lambda) heavy: QVQLQESGPGLVKPSETLSLTCTVSGGSISRDYWSWVRQPPGAGLEWIGNIYYSGSTNYNPSLKSRVTISVATNKKQFSLKLTSVTAADTAVYYCARVPGCSSTSCIDGWFDPWGQGILVTVSSASTKGPSVFPLAPSSKSTSGGTAALGCLVKDYFPEPVTVSWNSGALTSGVHTFPAVLQSSGLYSLSSVVTVPSSSLGTQTYICNVNHKPSNTKVDKRV[sequence of human IgG1 Fc omitted] light: QSVLTQPPSVSAAPGQKVTISCSGSSSNIGNTYVSWYQQLPGTAPKLLIYDNNKRPSGIPDRFSGSKSGTSATLGITGLQTGDEADYYCGTWDSSLSAWVFGGGTRLTVLGQPKAAPSVTLFPPSSEELQANKATLVCLISDFYPGAVTVAWKADSSPVKAGVETTTPSKQSNNKYAASSYLSLTPEQWKSHRSYSCQVTHEGSTVEKTVAPTECS	> 10 nM
P7G11 (antibody, human IgG1, lambda) heavy: QVQLQESGPGLAKPSQTLSLTCSVSGGSISSGGYSWSWIRQPPGKGLEYIGYIYYRGTTYYNPSLKSRITMSVDTSNNQISLKLTSVTAADTAVYYCARALTHLVGVGWFDPWGQGTMVTVSSASTKGPSVFPLAPSSKSTSGGTAALGCLVKDYFPEPVTVSWNSGALTSGVHTFPAVLQSSGLYSLSSVVTVPSSSLGTQTYICNVNHKPSNTKVDKRV[sequence of human IgG1 Fc omitted] light: QSVLTQPPSVSAAPGQKVTISCSGGSSNLGSNYVSWYQQLPGTAPKLLIYDNNKRPSGIPDRFSGSKSGTSATLGITGLQTGDEADYYCGTWDGSLSAWVFGGGTKVTVLGQPKAAPSVTLFPPSSEELQANKATLVCLISDFYPGAVTVAWKADSSPVKAGVETTTPSKQSNNKYAASSYLSLTPEQWKSHRSYSCQVTHEGSTVEKTVAPTECS	> 10 nM
